# Measurements published in the supplement of paper PMC8728848.
# Some of the results follow.
# B1: TES70 (Toxocara canis), Q9XYV5 (protein)
# chain: MISVVLVAIALQISGSYAGACNSINDCGLFETCVNNMCVPDNMGCPMPCQAGQVCVPPNCVAAPAPQPVTTTTAAATTTTSARGRCNANAQCGAFEVCVNGMCQPNNAGCNPPCAANQVCVAPNCVPAPIPPPAQSTTTAPATTRAPPSCPPSWSPFSGHCYYVAVGSFLFNQASDWCTQTNSRPVWFDQSNVGTFGAELYFINVLAASRGVQTYWLGLNRQFGQWVWTNGSPLIFSNWRGSEPDGCCGGNVTCALVNYANPFGQWDDAGCGNIWRNPQGFICKKPLA
# Tests used:
# Test in all cases: glycan array binding signal (z-score within array); higher = stronger binding
# Conditions in all cases: glycan notation: IUPAC condensed, linker removed
# [1] = target: Neu5Ac(a2-3)[Neu5Ac(a2-6)]GalNAc
# In short: (§1)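 The Consortium for Functional Glycomics database supplied 3228 glycan arrays, of which those lacking an available protein sequence were dropped. The binding signal, a within-array Z-score, was averaged across arrays of the same protein sequence and across linkers. Negative scores can be read as non-binding.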
# Neu5Ac(a2-6)Gal = target: Neu5Ac(a2-6)Gal
# In short: as §1
# Neu5Ac(a2-6)Gal(b1-4)Glc = target: Neu5Ac(a2-6)Gal(b1-4)Glc
# In short: as §1
# [2] = target: Neu5Ac(a2-6)Gal(b1-4)GlcNAc
# In short: as §1
# [3] = target: Neu5Ac(a2-6)Gal(b1-4)GlcNAc(b1-3)Gal(b1-4)GlcNAc
# In short: as §1
# [4] = target: Neu5Ac(a2-6)Gal(b1-4)GlcNAc(b1-3)Gal(b1-4)[Fuc(a1-3)]GlcNAc(b1-3)Gal(b1-4)[Fuc(a1-3)]GlcNAc
# In short: as §1
# [5] = target: Neu5Ac(a2-6)Gal(b1-4)GlcNAc6S
# In short: as §1
# Neu5Ac(a2-6)GalNAc = target: Neu5Ac(a2-6)GalNAc
# In short: as §1
# Neu5Ac(a2-8)Neu5Ac = target: Neu5Ac(a2-8)Neu5Ac
# In short: as §1
# [6] = target: Neu5Ac(a2-8)Neu5Ac(a2-3)Gal(b1-4)Glc
# In short: as §1
# [7] = target: Neu5Ac(a2-8)Neu5Ac(a2-3)[GalNAc(b1-4)]Gal(b1-4)Glc
# In short: as §1
# [8] = target: Neu5Ac(a2-8)Neu5Ac(a2-8)Neu5Ac
# In short: as §1
# [9] = target: Neu5Ac(a2-8)Neu5Ac(a2-8)Neu5Ac(a2-3)Gal(b1-4)Glc
# In short: as §1
# [10] = target: Neu5Ac(a2-8)Neu5Ac(a2-8)Neu5Ac(a2-3)[GalNAc(b1-4)]Gal(b1-4)Glc
# In short: as §1
# Neu5Ac(b1-6)GalNAc = target: Neu5Ac(b1-6)GalNAc
# In short: as §1
# [11] = target: Neu5Ac(b2-6)Gal(b1-4)GlcNAc
# In short: as §1
# [12] = target: Neu5Ac9Ac(a2-6)Gal(b1-4)GlcNAc
# In short: as §1
# [13] = target: Neu5Gc(a2-3)Gal(b1-3)GlcNAc
# In short: as §1
# [14] = target: Neu5Gc(a2-3)Gal(b1-3)[Fuc(a1-4)]GlcNAc
# In short: as §1
# Neu5Gc(a2-3)Gal(b1-4)Glc = target: Neu5Gc(a2-3)Gal(b1-4)Glc
# In short: as §1
# [15] = target: Neu5Gc(a2-3)Gal(b1-4)GlcNAc
# In short: as §1
# [16] = target: Neu5Gc(a2-3)Gal(b1-4)[Fuc(a1-3)]GlcNAc
# In short: as §1
# [17] = target: Neu5Gc(a2-6)Gal(b1-4)GlcNAc
# In short: as §1
# Neu5Gc(a2-6)GalNAc = target: Neu5Gc(a2-6)GalNAc
# In short: as §1
binder,measurement,setting,value
B1,glycan array binding signal (z-score),[1],-0.193
same,glycan array binding signal (z-score),Neu5Ac(a2-6)Gal,-0.128
same,glycan array binding signal (z-score),Neu5Ac(a2-6)Gal(b1-4)Glc,-0.159
same,glycan array binding signal (z-score),[2],6.41
same,glycan array binding signal (z-score),[3],-0.121
same,glycan array binding signal (z-score),[4],-0.131
same,glycan array binding signal (z-score),[5],-0.124
same,glycan array binding signal (z-score),Neu5Ac(a2-6)GalNAc,-0.092
same,glycan array binding signal (z-score),Neu5Ac(a2-8)Neu5Ac,-0.171
same,glycan array binding signal (z-score),[6],-0.14
same,glycan array binding signal (z-score),[7],-0.165
same,glycan array binding signal (z-score),[8],-0.175
same,glycan array binding signal (z-score),[9],-0.122
same,glycan array binding signal (z-score),[10],-0.145
same,glycan array binding signal (z-score),Neu5Ac(b1-6)GalNAc,-0.111
same,glycan array binding signal (z-score),[11],-0.153
same,glycan array binding signal (z-score),[12],-0.172
same,glycan array binding signal (z-score),[13],-0.104
same,glycan array binding signal (z-score),[14],-0.155
same,glycan array binding signal (z-score),Neu5Gc(a2-3)Gal(b1-4)Glc,-0.17
same,glycan array binding signal (z-score),[15],-0.144
same,glycan array binding signal (z-score),[16],-0.14
same,glycan array binding signal (z-score),[17],-0.15
same,glycan array binding signal (z-score),Neu5Gc(a2-6)GalNAc,-0.127
